This is one part of the list. At the low end of the ranking the order means little.

For the experiment, the target named is MAX:MAX (p21) (UniProt P61244-2). Nature of the experiment: protein-binding microarray (anti-MAX antibody). As to conditions: PBM: 15 mM Tris-HCl pH 7.5, 100 mM KCl, 0.075% NP40, 7.5 mM beta-mercaptoethanol, 375 ng/ul BSA, 8 ng/ul poly(dA-dT):(dA-dT), 550 ng complex, 60 min, room …; high values mean tight binding; double strand, one strand shown; sequences stand for … in CCGGC…TTAATAGCTAAGATTACTATATCGACG
Take TGAAACTCCGTA: the binding signal (log2 normalized fluorescence) is -0.698.

The sequence TGACTACCGGTA gave a binding signal (log2 normalized fluorescence) of -0.739.

For the sequence TGAGTTGTCGTA, the binding signal (log2 normalized fluorescence) is -0.797.

As to TGATAGGCCGTA, the binding signal (log2 normalized fluorescence) is -1.4.

In the case of TGATCCAGAGTA, the binding signal (log2 normalized fluorescence) was -0.902.

With TGATCGTACGTA, the binding signal (log2 normalized fluorescence) is -0.438.

In turn, TGAAGCTGAGTA showed a binding signal (log2 normalized fluorescence) of -0.785.

In turn, TGACTGTGAGTA displayed a binding signal (log2 normalized fluorescence) of -0.0273.

The sequence TGACGTTTTGTA gave a binding signal (log2 normalized fluorescence) of -0.833.

Sequence TGAGATAGGGTA came in with a binding signal (log2 normalized fluorescence) of -1.23.

Take TGACGCATCGTA: the binding signal (log2 normalized fluorescence) was 0.0462.

TGATGCGTGGTA yielded a binding signal (log2 normalized fluorescence) of 2.25.

TGAACTGTCGTA displayed a binding signal (log2 normalized fluorescence) of -0.418.

TGAAGCACCGTA: the binding signal (log2 normalized fluorescence) is 0.302.

On to TTACACGGGGTC, for which the binding signal (log2 normalized fluorescence) was 3.21.

TGAGGAGCGGTA gave a binding signal (log2 normalized fluorescence) of -0.671.

The sequence TGATTCACCGTA registered a binding signal (log2 normalized fluorescence) of -0.472.

Take TGAATCTCTGTA: the binding signal (log2 normalized fluorescence) is -1.15.

As for TGATAGCTAGTA, the binding signal (log2 normalized fluorescence) is -1.37.

TGATGTATCGTA displayed a binding signal (log2 normalized fluorescence) of -0.203.

Consider TGACATGTCGTA, for which the binding signal (log2 normalized fluorescence) turned out to be 1.53.

For TGACGGCAGGTA, the binding signal (log2 normalized fluorescence) was -0.159.

The sequence TGACCATGAGTA displayed a binding signal (log2 normalized fluorescence) of 2.

With CATCACGTGGTA, the binding signal (log2 normalized fluorescence) came to 3.11.

As for TGAATTGTTGTA, the binding signal (log2 normalized fluorescence) is -0.515.

TGACTGGGTGTA came in with a binding signal (log2 normalized fluorescence) of -0.0734.

The sequence TGAGACACCGTA came in with a binding signal (log2 normalized fluorescence) of -0.194.

In the case of TGACACGGCATA, the binding signal (log2 normalized fluorescence) was determined as 0.992.

In the case of GACCACGTGGTA, the binding signal (log2 normalized fluorescence) came to 3.3.

In turn, TGATAAGCTGTA displayed a binding signal (log2 normalized fluorescence) of -1.04.

In turn, TGAGCGTTGGTA displayed a binding signal (log2 normalized fluorescence) of -0.314.

For TGAACATTGGTA, the binding signal (log2 normalized fluorescence) was -0.132.

Regarding TGAAGACTCGTA, the binding signal (log2 normalized fluorescence) is -0.55.

TGAAGTCGTGTA returned a binding signal (log2 normalized fluorescence) of 0.233.

For TGAAGCTAAGTA, the binding signal (log2 normalized fluorescence) is -1.02.

Regarding TGGCCCGTTGTA, the binding signal (log2 normalized fluorescence) was -0.569.

The sequence TGAATAACGGTA had a binding signal (log2 normalized fluorescence) of -0.806.

Turning to TGACTTCCAGTA, the binding signal (log2 normalized fluorescence) was -0.85.

Sequence TCACCGGTGGTA came in with a binding signal (log2 normalized fluorescence) of 1.44.

Turning to TGAAGTTGCGTA, the binding signal (log2 normalized fluorescence) is -0.654.

In turn, TGAATCGACGTA registered a binding signal (log2 normalized fluorescence) of -0.856.

TGAACAGTTGTA gave a binding signal (log2 normalized fluorescence) of -0.643.

TGATGTCAAGTA yielded a binding signal (log2 normalized fluorescence) of -0.151.

For the sequence TGACACGTGTGA, the binding signal (log2 normalized fluorescence) came to 3.24.

With TGACCTTTAGTA, the binding signal (log2 normalized fluorescence) is -0.715.

Sequence TGAACTTAAGTA had a binding signal (log2 normalized fluorescence) of -0.648.

For TGATTTCCGGTA, the binding signal (log2 normalized fluorescence) is -1.18.

With TGATCAACTGTA, the binding signal (log2 normalized fluorescence) was -0.143.

On to TGACGAATCGTA, for which the binding signal (log2 normalized fluorescence) was -0.835.

For the sequence TGACACGGGGTA, the binding signal (log2 normalized fluorescence) was found to be 2.49.

Turning to TGAGGTAGCGTA, the binding signal (log2 normalized fluorescence) is -0.443.

Take TGATCTGGTGTA: the binding signal (log2 normalized fluorescence) was -0.555.

TGATGTCGGGTA came in with a binding signal (log2 normalized fluorescence) of -0.409.

On to TGACTTAGGGTA, for which the binding signal (log2 normalized fluorescence) was -0.711.

As to TGACAGTTCGTA, the binding signal (log2 normalized fluorescence) is -0.332.

Turning to TGAACTCACGTA, the binding signal (log2 normalized fluorescence) came out at 0.298.

TGACACCGTGTA came in with a binding signal (log2 normalized fluorescence) of 1.72.

Turning to TGAGACGGAGTA, the binding signal (log2 normalized fluorescence) was -1.12.

Sequence TGAAGCGGTGTA yielded a binding signal (log2 normalized fluorescence) of -0.554.

As for TGACGCGCCGTA, the binding signal (log2 normalized fluorescence) was 0.209.

TGAGCATGCGTA: the binding signal (log2 normalized fluorescence) came out at 2.82.

Sequence TGAATGCCTGTA yielded a binding signal (log2 normalized fluorescence) of 0.35.

In the case of TGAGAAGCGGTA, the binding signal (log2 normalized fluorescence) was -0.9.

Take TGACTAGGGGTA: the binding signal (log2 normalized fluorescence) was -0.293.

TGAGAGAGTGTA yielded a binding signal (log2 normalized fluorescence) of -0.651.

In the case of AGACATGTGGTG, the binding signal (log2 normalized fluorescence) worked out at 3.1.

Sequence TGATACAACGTA had a binding signal (log2 normalized fluorescence) of -0.446.

TGATCAAAGGTA showed a binding signal (log2 normalized fluorescence) of -0.504.

In turn, TGACATGGGGTA came in with a binding signal (log2 normalized fluorescence) of 2.42.

TGATTCCTTGTA registered a binding signal (log2 normalized fluorescence) of -0.982.

With TGATACCCTGTA, the binding signal (log2 normalized fluorescence) was -0.391.

Regarding TGACACATGGTT, the binding signal (log2 normalized fluorescence) turned out to be 3.37.

In turn, GGCCACTTGGTA yielded a binding signal (log2 normalized fluorescence) of 0.572.

On to TGAATTTCCGTA, for which the binding signal (log2 normalized fluorescence) was -1.04.

CGACACGTGGTA displayed a binding signal (log2 normalized fluorescence) of 3.12.

On to TGACACGCGAGA, for which the binding signal (log2 normalized fluorescence) was 2.54.

In turn, TAACACGTGATA registered a binding signal (log2 normalized fluorescence) of 3.18.

On to CAACACGTGGTA, for which the binding signal (log2 normalized fluorescence) amounted to 3.22.

In turn, TGATCGGGGGTA displayed a binding signal (log2 normalized fluorescence) of 1.41.

Regarding TGACACGTACCA, the binding signal (log2 normalized fluorescence) came out at 1.34.

Sequence TGAGCAGGGGTA displayed a binding signal (log2 normalized fluorescence) of 0.451.

In the case of TGAGTGCCAGTA, the binding signal (log2 normalized fluorescence) is -0.284.

With TGACGTGGGGTA, the binding signal (log2 normalized fluorescence) worked out at 1.38.

Turning to TAATACGTGGTG, the binding signal (log2 normalized fluorescence) was determined as 1.56.

As to TGAAAATAAGTA, the binding signal (log2 normalized fluorescence) is -0.811.

TGACGTCGAGTA yielded a binding signal (log2 normalized fluorescence) of -0.44.

As for TGAGAGACTGTA, the binding signal (log2 normalized fluorescence) is -0.798.

In turn, TGAGACTCAGTA yielded a binding signal (log2 normalized fluorescence) of -0.598.

TGAGAATATGTA displayed a binding signal (log2 normalized fluorescence) of -0.726.

As for TGAAACTAGGTA, the binding signal (log2 normalized fluorescence) was -0.807.

Regarding TGAACTCGCGTA, the binding signal (log2 normalized fluorescence) was determined as 0.166.

Turning to TGAAAGTAGGTA, the binding signal (log2 normalized fluorescence) is -0.908.

The sequence TGATTCTCAGTA yielded a binding signal (log2 normalized fluorescence) of -0.684.

On to TGAGGTAGTGTA, for which the binding signal (log2 normalized fluorescence) is -0.71.

TGATAAGTAGTA yielded a binding signal (log2 normalized fluorescence) of -1.11.

As for TGAGTACCCGTA, the binding signal (log2 normalized fluorescence) was -0.792.

The sequence TGACCGGTTGTA showed a binding signal (log2 normalized fluorescence) of -0.559.

TGATCATGAGTA registered a binding signal (log2 normalized fluorescence) of 1.67.

Sequence TGATTGAGGGTA had a binding signal (log2 normalized fluorescence) of -0.965.

The sequence TGATGAGCCGTA had a binding signal (log2 normalized fluorescence) of -0.923.

TGAGTACGCGTA had a binding signal (log2 normalized fluorescence) of -0.441.

TGAGCGTCAGTA yielded a binding signal (log2 normalized fluorescence) of -0.442.

In turn, TGAAGATATGTA came in with a binding signal (log2 normalized fluorescence) of -0.698.

The sequence TGGCCCGTGGTA showed a binding signal (log2 normalized fluorescence) of 1.64.

In turn, TGATGGTGGGTA registered a binding signal (log2 normalized fluorescence) of 0.202.

Take TGAGGCTAGGTA: the binding signal (log2 normalized fluorescence) is -1.16.

In turn, TGAAACGGGGTT displayed a binding signal (log2 normalized fluorescence) of 0.434.

For the sequence TGAGCAATTGTA, the binding signal (log2 normalized fluorescence) was -0.926.

As to TGACAGGTGGTA, the binding signal (log2 normalized fluorescence) was 2.69.

As for TGAATTGCAGTA, the binding signal (log2 normalized fluorescence) is -0.423.

TGATAATTGGTA gave a binding signal (log2 normalized fluorescence) of -1.09.

TGACATACAGTA had a binding signal (log2 normalized fluorescence) of 0.345.

Consider TGATAGAGGGTA, for which the binding signal (log2 normalized fluorescence) was -0.944.

As to TGCAGCGTGGTA, the binding signal (log2 normalized fluorescence) stood at 2.94.

Turning to TGAGTTAAAGTA, the binding signal (log2 normalized fluorescence) is -1.16.

With TGACTCCGGGTA, the binding signal (log2 normalized fluorescence) is -0.571.

On to TGAGAAGGTGTA, for which the binding signal (log2 normalized fluorescence) is -0.154.

In turn, TGACAGTCCGTA yielded a binding signal (log2 normalized fluorescence) of -0.424.

The sequence TGATAGCGAGTA came in with a binding signal (log2 normalized fluorescence) of -0.413.

Consider TTGAACGTGGTA, for which the binding signal (log2 normalized fluorescence) amounted to 2.54.

TGACACGTAGAG had a binding signal (log2 normalized fluorescence) of 0.996.

In the case of TGATCCCTCGTA, the binding signal (log2 normalized fluorescence) was -0.795.

The sequence TGTCACTTGATA yielded a binding signal (log2 normalized fluorescence) of 0.114.

For the sequence TGAGAGATAGTA, the binding signal (log2 normalized fluorescence) was -1.27.

The sequence TGAATAAATGTA showed a binding signal (log2 normalized fluorescence) of -0.629.

Consider TGACGGCTAGTA, for which the binding signal (log2 normalized fluorescence) is -0.611.

With TGACCATTTGTA, the binding signal (log2 normalized fluorescence) is -0.111.

TGACCGTTGGTA: the binding signal (log2 normalized fluorescence) is -0.411.

Sequence TGACAGAATGTA returned a binding signal (log2 normalized fluorescence) of 0.397.

Regarding TGAGCCGCCGTA, the binding signal (log2 normalized fluorescence) was -1.1.

Consider GTCCACGTGGTA, for which the binding signal (log2 normalized fluorescence) was determined as 3.64.

TGACCGCGTGTA returned a binding signal (log2 normalized fluorescence) of 3.4.

With CGACCCGGGGTA, the binding signal (log2 normalized fluorescence) is -0.203.

Sequence TGAAGTGGGGTA displayed a binding signal (log2 normalized fluorescence) of 0.195.

TGAGGGTAAGTA yielded a binding signal (log2 normalized fluorescence) of -0.683.

As to TGAACCCAAGTA, the binding signal (log2 normalized fluorescence) is -0.182.

Regarding TGAAGAGTCGTA, the binding signal (log2 normalized fluorescence) is -1.

The sequence TGAGAGCAGGTA registered a binding signal (log2 normalized fluorescence) of -0.436.

Source of the values: article PMC5515408.
